Test results reported in the supplement of paper PMC4604168 (melanoma cell lines).
The list shows a part of the results. Repeats are few or missing, and single values can be far off.

Legend:
Assay in all cases: cell count relative to DMSO control; melanoma cells; higher = more viable cells
Details in all cases: library dose: low library concentration; 72 h
[1] = test system: WM115
[2] = test system: WM1716
[3] = test system: WM1745
[4] = test system: WM3526
[5] = test system: WM3619
[6] = test system: WM451Lu
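Also: cell number obtained by counting DAPI-stained nuclei in high-throughput microscope images with image analysis software, screen run in 1,536-well plates.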

Row | SMILES | cell count [1] [%] | cell count [2] [%] | cell count [3] [%] | cell count [4] [%] | cell count [5] [%] | cell count [6] [%]
1 | C[As](C)SC[C@H](NC(=O)CC[C@H](N)C(=O)O)C(=O)NCC(=O)O [Darinaparsin] + Cc1nc(Nc2ncc(C(=O)Nc3c(C)cccc3Cl)s2)cc(N2CCN(CCO)CC2)n1 [dasatanib] (first compound 0.4 µM, partner dose 0.004 µM) | 79.4 | 90.9 | 68.3 | 98.4 | 96.1 | 79.9
2 | C[C@]12O[C@H](C[C@]1(O)CO)n1c3ccccc3c3c4c(c5c6ccccc6n2c5c31)CNC4=O [Lestaurtinib] + C[As](C)SC[C@H](NC(=O)CC[C@H](N)C(=O)O)C(=O)NCC(=O)O [Darinaparsin] (first compound 0.004 µM, partner dose 0.4 µM) | 102 | 114 | 99.2 | 97.9 | 79.5 | 103
3 | C[As](C)SC[C@H](NC(=O)CC[C@H](N)C(=O)O)C(=O)NCC(=O)O [Darinaparsin] + O=C(Nc1ccccc1)c1cc([N+](=O)[O-])ccc1Cl [GW9662] (first compound 0.4 µM, partner dose 2 µM) | 93.7 | 104 | 114 | 122 | 81.4 | 109
4 | Cn1cc(C2=C(c3cn(C4CCN(Cc5ccccn5)CC4)c4ccccc34)C(=O)NC2=O)c2ccccc21 [Enzastaurin] + Nc1ncn([C@H]2C[C@H](O)[C@@H](CO)O2)c(=O)n1 [decitabine] (first compound 0.8 µM, partner dose 0.1 µM) | 111 | 89.2 | 89.6 | 101 | 100 | 91.7
